# The whole screen tested about 310,000 compounds, of which about 14,000 (4.5%) showed an effect of 50% or more. The effect is printed as a negative number. The list shows a part of the results.
# Molecular target: human ether-à-go-go-related gene (hERG) potassium channel (human, UniProt Q12809)
# Assay: primary screen, population patch clamp on CHO cells stably expressing hERG
# 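Note: peak tail current of the secondary pulse compared with the same well before compound.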
# Chain of human ether-à-go-go-related gene (hERG) potassium channel (Q12809 whole entry, looked up): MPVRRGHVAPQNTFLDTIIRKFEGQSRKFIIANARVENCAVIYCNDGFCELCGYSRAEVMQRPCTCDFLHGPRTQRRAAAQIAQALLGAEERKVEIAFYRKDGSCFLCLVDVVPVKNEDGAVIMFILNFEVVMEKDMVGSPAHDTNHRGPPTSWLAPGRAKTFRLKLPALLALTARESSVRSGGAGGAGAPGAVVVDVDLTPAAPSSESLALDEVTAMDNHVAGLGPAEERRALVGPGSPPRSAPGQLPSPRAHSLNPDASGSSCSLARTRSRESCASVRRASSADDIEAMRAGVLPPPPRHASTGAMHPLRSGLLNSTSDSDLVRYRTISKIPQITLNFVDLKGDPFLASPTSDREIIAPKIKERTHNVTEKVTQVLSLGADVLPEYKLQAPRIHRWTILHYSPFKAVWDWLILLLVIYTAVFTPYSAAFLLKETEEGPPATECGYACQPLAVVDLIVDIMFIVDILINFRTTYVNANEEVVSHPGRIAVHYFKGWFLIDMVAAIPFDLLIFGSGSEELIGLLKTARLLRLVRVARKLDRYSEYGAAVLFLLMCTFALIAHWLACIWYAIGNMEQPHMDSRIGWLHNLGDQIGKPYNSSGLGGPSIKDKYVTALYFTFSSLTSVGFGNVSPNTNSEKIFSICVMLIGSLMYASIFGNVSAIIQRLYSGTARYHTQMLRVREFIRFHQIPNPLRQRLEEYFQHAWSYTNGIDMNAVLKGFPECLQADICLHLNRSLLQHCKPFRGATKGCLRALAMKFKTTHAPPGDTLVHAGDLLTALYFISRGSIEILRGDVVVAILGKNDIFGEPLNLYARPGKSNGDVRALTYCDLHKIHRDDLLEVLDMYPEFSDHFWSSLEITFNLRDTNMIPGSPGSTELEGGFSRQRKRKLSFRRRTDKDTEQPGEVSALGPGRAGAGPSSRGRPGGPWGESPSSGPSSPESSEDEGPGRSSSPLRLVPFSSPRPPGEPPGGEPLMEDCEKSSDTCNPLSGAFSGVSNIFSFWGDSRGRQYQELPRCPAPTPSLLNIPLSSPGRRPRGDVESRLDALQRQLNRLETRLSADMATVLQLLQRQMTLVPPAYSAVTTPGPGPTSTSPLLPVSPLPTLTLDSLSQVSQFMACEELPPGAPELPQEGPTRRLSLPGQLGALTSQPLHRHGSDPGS
row,Structure (SMILES),"hERG current change (%, negative = inhibition) at 10uM"
1,CCOC(=O)C(NC(=O)NCc1ccccc1OC)(OCC)C(F)(F)F (stereo not shown),2.09%
2,COc1cc(C2=NOC(C(=O)Nc3ccc4c(c3)OCO4)C2)cc(OC)c1OC (stereo not shown),16.6%
3,COc1ccc2nc(NC(=O)CSc3nc4cccnc4n3C)sc2c1,5.04%
4,CCc1ccc(OC(=O)/C=C/c2ccco2)cc1,3.07%
5,CCCn1c(=O)c2c(nc(Br)n2CCC)n(C)c1=O,-1.31%
6,CC(C)CCNC(=O)C1CCN(Cc2cccc(OCc3ccccc3)c2)CC1.O=C(O)C(=O)O,-50.8%
7,O=C(c1cc(-c2ccncc2)nc2ccccc12)N1CCN(S(=O)(=O)/C=C/c2ccccc2)CC1,-66.6%
8,COc1ccccc1N1CCN(C(=O)COc2ccc(C)cc2Br)CC1,-17.8%
9,S=C(Nc1ccccc1)N1CCOCCOCCN(C(=S)Nc2ccccc2)CCOCCOCC1,-23.4%
10,O=C(Nc1ccc(N2CCN(C(=O)c3cccs3)CC2)c(Cl)c1)c1cccnc1,-20.6%
11,CCCS/C(N)=N/N=C/c1ccccc1O,-6.67%
12,CCOC(=O)CCNCC1COc2ccccc2O1.Cl (stereo not shown),-1.63%
13,Cn1nnnc1SCc1ccc(Cl)cc1,21.8%
14,COc1ccccc1C(=O)NCCNC(=O)c1ccco1,17.4%
15,COc1ccc(NS(=O)(=O)c2cccc(C(=O)N/N=C/c3cn(-c4ccccc4)nc3-c3ccccc3)c2)cc1,10.2%
16,Cc1cccc(C)c1NC(=O)CNC(=O)CNC(=O)Cc1cccc2ccccc12,4.51%
17,COc1cc(-c2onc3ccc(Br)cc23)cc(OC)c1OC,0.245%
18,COc1nc(Nc2ccc([N+](=O)[O-])cc2)nc(NC(C)C)n1,-2.54%
19,CS(=O)(=O)N(C(=O)NC(=O)NC12CC3CC(CC(C3)C1)C2)C1CCCCC1,13.5%
20,Cc1ccnc(NS(=O)(=O)c2ccc(NC(=O)C3CC3)cc2)n1,18.5%
21,CCN(CCNC(=O)C1CCCN(S(=O)(=O)c2cnc[nH]2)C1)c1ccccc1 (stereo not shown),4.35%
22,O=C(NCCCNC(=O)c1ccccn1)c1cccc(F)c1,-0.38%

row,Structure (SMILES),"hERG current change (%, negative = inhibition) at 10uM"
1,COc1ccc(NC(=O)CSc2nc3ccc(Nc4nc(N5CCOCC5)nc(N5CCOCC5)n4)cc3s2)cc1,0.736%
2,COc1ccc(CC(=O)OCC(=O)NCC2CCCO2)cc1OC (stereo not shown),9.33%
3,COc1ccc(S(=O)(=O)Nc2ccccc2)cc1,-5.64%
4,Cc1cccc(N2CCN(C(=O)C3CCN(c4nnc(-n5cccc5)s4)CC3)CC2C)c1 (stereo not shown),-55.8%
5,Cc1ccc(C(=O)N/C(=C\c2ccco2)C(=O)NCCCN2CCOCC2)cc1C,-12.7%
6,CCOC(=O)N1CCC(N(CCOC)C(=O)Nc2ccc(CC)cc2)CC1,-35.8%
7,O=C(CNS(=O)(=O)c1ccc(F)cc1)N1CCN(c2ccc(F)cc2)CC1,-51.7%
8,COC(=O)c1ccc(NC(=O)CNS(=O)(=O)c2cccs2)cc1,-1.02%
9,CCN=C1SC(CC(=O)Nc2ccc(C)cc2)C(=O)N1CC (stereo not shown),9.15%
10,COc1ccc(N(CC(=O)NC2CCCCC2C)S(=O)(=O)c2c(C)nn(C)c2C)cc1 (stereo not shown),-15.5%
11,Cc1cc2oc(C(=O)Nc3cccnc3)c(C)c2cc1C,-8.46%
12,CCCCNC(=S)N(C)/N=C/c1sc(N2CCCCC2)nc1-c1cccs1,14.4%
13,Cc1csc(SC(C)C(=O)Nc2ccccc2C)n1 (stereo not shown),-11.3%
14,CC(=O)Nc1ccc(S(=O)(=O)N2CCC(NC(=O)c3ccccc3)CC2)cc1,22.2%
15,Cn1c(SCC(=O)Nc2ccc3cn[nH]c3c2)nnc1-c1cccs1,-24.9%
16,O=C(Cn1nc(-c2cccs2)ccc1=O)Nc1ccc(Br)cc1,-28.5%
17,CCOc1ccc(-c2nc(C#N)c(NC3CC3)o2)cc1,-2.09%
18,CCOC(=O)C1CCN(C(=O)c2ccc3c(c2)NC(=O)/C(=C/c2ccccc2)S3)CC1,-8.86%
19,Cc1ccc(CN(C(=O)c2ccccc2C)C2CCS(=O)(=O)C2)o1 (stereo not shown),-0.796%
20,CCOc1ccc(NC(=O)CN2C(=O)C(C)SC(C)C2=O)cc1 (stereo not shown),-9.77%
21,COc1ccc2c(c1O)-c1c(OC)c(OC)cc3c1[C@H](C2)N(C)CC3,-36.5%
22,CC(=O)Nc1ccc(NS(=O)(=O)c2cn(C)c(=O)n(C)c2=O)cc1,-0.872%

row,Structure (SMILES),"hERG current change (%, negative = inhibition) at 10uM"
1,CC1=CC(c2ccccc2)n2nc(NS(=O)(=O)c3ccc(C)cc3)nc2N1 (stereo not shown),-12.1%
2,CCOc1ccc(-c2nnc(-c3cccnc3)o2)cc1OCC,-42.9%
3,O=C(OCc1nnc(-c2ccc(Cl)cc2)o1)c1ccc(=O)n(Cc2ccccc2)n1,-7.02%
4,O=C(O)c1cc(N/N=C/c2ccc(N3CCOCC3)cc2)ccc1Cl,-0.775%
5,O=C1Nc2ccc(F)cc2C12OCCO2,15.5%
6,Cc1cc(-c2ccccc2)c2ccc(NC(=O)C(C)(C)C)nc2n1,6.6%
7,COCCN1CC(C(=O)N2CCC(Oc3ccccc3OC)CC2)CCC1=O (stereo not shown),-2.66%
8,O=C(/C=C/c1cccc([N+](=O)[O-])c1)NCCSCc1cccc(Cl)c1,-18.9%
9,COc1ccc(CC(=O)OCC(=O)Nc2ccc3c(c2)OCO3)cc1OC,6.13%
10,C=C(C)CN1CCN(c2c(CCC#N)c(C)c(C#N)c3nc4ccccc4n23)CC1,-25.8%
11,S=C(Nc1cccc2ccccc12)N1CCN(c2ncccn2)CC1,9.94%
12,C=C(C)Cn1c(=S)[nH]c2ccccc2c1=O,5.47%
13,CCOC(=O)c1c(C=O)c(C)n(Cc2ccccc2Cl)c1C,-2.09%
14,CC(C)c1nnc(SCC(=O)NC2CCCC2)n1C,31.9%
15,CC(C)c1[nH]c(=O)c(C#N)c2c1COC(C)(C)C2,-26.1%
16,O=C1NC(=O)N(c2ccccc2)C(=O)/C1=C/c1ccc2c(c1)Cc1ccccc1-2,11.5%
17,CN(C)C=Nc1c(Br)cc(Br)c2nonc12,-29.9%
18,CC(C)Oc1ccc(C2c3c(oc4ccccc4c3=O)C(=O)N2CCCN2CCOCC2)cc1 (stereo not shown),-39.7%
19,COc1ccc(S(=O)(=O)NCC(=O)N(CC(=O)NCc2ccco2)Cc2ccc(F)cc2)cc1,1.94%
20,O=C(Nc1cc(S(=O)(=O)N2CCOCC2)ccc1N1CCCC1)c1ccc(F)cc1,-82.3%
21,CCOC(=O)c1c(C)n(-c2ccc(C)cc2)c2c(CC(C)=O)c(Br)c(OC)c(O)c12,23.2%
22,Cc1ccc(NC(=O)/C(C#N)=C/c2ccsc2)c(C)c1,12.7%

row,Structure (SMILES),"hERG current change (%, negative = inhibition) at 10uM"
1,CN(Cc1nc(-c2cccnc2)no1)S(=O)(=O)c1ccccc1,-14.2%
2,CCOC(=O)CSc1nc(C)cc(C)c1C#N,11.4%
3,O=C(OCCN=C1NS(=O)(=O)c2ccccc21)c1cccc([N+](=O)[O-])c1,-3.7%
4,Cc1ccc(OCc2nnc(N)s2)cc1C,11.3%
5,COc1ccc(C(C)=O)cc1CN1C(=O)NC2(CCCCCC2)C1=O,-3.9%
6,COc1ccc(C(=O)/C=C/c2ccc(C)cc2)c(OC(=O)c2ccc([N+](=O)[O-])cc2)c1,7.29%
7,COc1ccccc1N1CCN(C(=O)c2ccc(COc3cccc4c3OC(C)(C)C4)cc2)CC1,-8.84%
8,COc1ccc(C(=O)Nc2ccccc2C(=O)Nc2cc(C)ccn2)cc1,-5.69%
9,Cc1ccc(CC(=O)NCCS(=O)c2ccc(C)cc2)cc1 (stereo not shown),-5.27%
10,CC(=O)NC(O)C(=O)c1ccco1 (stereo not shown),18.4%
11,O=C(NC(N1CCCCCC1)C(Cl)(Cl)Cl)c1ccccc1Cl (stereo not shown),6.05%
12,C=Cn1cc[n+](CC(=O)c2cc(C(C)(C)C)c(O)c(C(C)(C)C)c2)c1.[Br-],8.17%
13,Cc1ccc(C)c(N(C(=O)Cn2nnc(-c3cccs3)n2)C(C(=O)NC2CC2)c2ccc(C)o2)c1 (stereo not shown),0.588%
14,Cc1cc(C(=O)NCc2cccs2)ccc1[N+](=O)[O-],-11.4%
15,Cc1nc2c3ccccc3nc(SCC(=O)N3CC(C)CC(C)C3)n2n1 (stereo not shown),-38%
16,Cc1c(C=O)c2ccccn2c1C(=O)c1cccc([N+](=O)[O-])c1,12.5%
17,CCc1nnc(NC(=O)CSc2nnc(COc3cccc(C)c3)o2)s1,15.9%
18,COc1ccc(CNC(=O)c2ccc(NC(=O)CC3SC(N4CCCCC4)=NC3=O)cc2)cc1 (stereo not shown),-4.22%
19,O=C(CSc1nc(O)c(C2CCCCC2)c(=O)[nH]1)Nc1ccc(F)cc1,22.4%
20,CN(C)/C=C/C(=O)c1cnc(-c2ccc(Cl)cc2)s1,15.4%
21,O=c1[nH]c(=S)[nH]c2[nH]c(=S)[nH]c12,14.5%
22,Cc1nc(NS(=O)(=O)c2ccc(Br)cc2)c2c3c(sc2n1)CCC3,-2.86%
